Assay results taken from PubChem BioAssay AID1508642 (National Center for Advancing Translational Sciences (NCATS), 2021).
In all, about 43,000 compounds went through this assay and about 200 (0.47%) were called active. Another 12% or so got no clear call; they are omitted. Calls come from the whole dose curve; as a rule, active = well fitted cell-killing curve with a large enough effect; inconclusive = small, poorly fitted or top-dose-only effect, or effect the other way; inactive = flat fitted curve, though single readings scatter. Some of the results follow.

Experiment: Cell viability qHTS assay in S16 Pmp22-F2sN cells; note: nearly all actives have a fitted effect of over 65% in size
Conditions: S16 Pmp22-F2sN Schwann cells (luciferase reporters placed in the Pmp22 gene) viability, CellTiter-Glo, 24 h; series mostly up to 57.5 µM; activity change, negative = cytotoxicity: at the top concentration
Method in brief: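 Rat S16 Schwann reporter line, 24 h treatment with library compounds delivered at 23 nL per well. Cell viability by CellTiter-Glo luminescence.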
% is set by controls: 0 for no effect and ±100 for the full control effect.

| SMILES | activity change, negative = cytotoxicity |
| --- | --- |
| Fc1cccc(-n2ncc3c2ncn2nc(Cc4ccccc4)nc32)c1 | inactive: 7.3% |
| Cc1ccc2nc3sc(C(=O)NCCCN(C)c4ccccc4)cc3cc2c1 | inactive: 20.6% |
| Cc1ccc(CNC(=O)CN2C(=O)COc3ccc(S(=O)(=O)Nc4ccccc4)cc32)cc1 | inactive: 3.07% |
| CC(C)(C)OC(=O)N1CCC(c2nnc(SCc3cccc(Cl)c3)o2)CC1 | inactive: -25.2% |
| COc1ccc(-c2nc(SCC(=O)Nc3ccc4c(c3)OCCO4)c(-c3ccc(C)cc3)[nH]2)cc1OC | inactive: -5.19% |
| COc1ccc(NC(=O)CSc2ccc3nc(-c4ccccc4)cn3n2)cc1OC | inactive: 2.55% |
| CC(C)NC(=O)c1nn(-c2ccccc2F)nc1CO | inactive: -0.708% |
| Cc1ccccc1Nc1c(-c2ccc(N3CCOCC3)cc2)nc2ccccn12 | inactive: -13.2% |
| COc1ccccc1NC(=O)CCCc1nnc2n(C)c(=O)c3sccc3n12 | inactive: -26.7% |
| CCOC(=O)c1cc(S(=O)(=O)NCc2ccc(C)cc2)[nH]n1 | inactive: 0.165% |
| O=C(Nc1ccc(Oc2ccccc2)cc1)C1CCN(S(=O)(=O)c2ccc(Cl)cc2)CC1 | inactive: 2.83% |
| CCOc1ccc(CCNC(=O)c2ccc3c(c2)c(C)c(C)n3Cc2ccccc2)cc1OCC | inactive: -20.5% |
| Cc1ccc(SCC(=O)Nc2ccc3oc(-c4ccccc4C)nc3c2)cc1 | inactive: 6.65% |
| COc1ccc(-n2c(=O)c3ccccc3n(CC(=O)Nc3ccccc3OC)c2=O)cc1 | inactive: -3.38% |
| COc1cc(OC)cc(C(=O)Nc2cc3c(cc2N2CCCC2)n(C)c(=O)c(=O)n3C)c1 | inactive: -0.609% |
| CSc1ccc(CCNC(=O)CCn2c(=O)c3cccn3c3ccc(F)cc32)cc1 | inactive: 18.1% |
| CCOC(=O)c1c(NC(=O)c2cc3ccccc3c(=O)o2)sc2c1CCC(C)C2 (configuration not stated) | inactive: 1.07% |
| CC(=O)c1ccc(NC(=O)c2cnn(-c3cccc(F)c3)c2-n2cccc2)cc1 | inactive: -1.39% |
| COc1ccc(S(=O)(=O)c2c(O)c3ccc(C(=O)NCc4ccc(F)cc4)cc3[nH]c2=O)cc1 | inactive: 0.832% |
| Cc1ccc(CNC(=O)c2cc(C)nc3c2c(C)nn3-c2ccc(C)cc2)cc1 | inactive: 4.12% |
| Cc1ccc2c(CC(=O)Nc3c(C(=O)c4ccc(C)c(F)c4)oc4ccccc34)coc2c1 | inactive: 3.66% |

| SMILES | activity change, negative = cytotoxicity |
| --- | --- |
| CCOc1ccc(N2CC(NC(=O)c3cccs3)CC2=O)cc1 (configuration not stated) | inactive: 11.4% |
| CCc1ccc(NC(=O)[C@H](Cc2ccccc2)N2Cc3ccccc3C2=O)cc1 | inactive: 2.3% |
| COc1cc(NC(=O)CCc2c(C)nn(-c3ccc4nnc(C)n4n3)c2C)cc(OC)c1OC | inactive: 1.94% |
| Cc1ccc(S(=O)(=O)n2nc(-c3ccccc3)nc2NCc2ccc(Cl)cc2)cc1 | inactive: 4.14% |
| O=C1CC(c2nc(-c3ccc(Cl)cc3)no2)CN1c1ccc2c(c1)OCCO2 (configuration not stated) | inactive: 0.911% |
| O=C(CSc1nc2c([nH]c3ccccc32)c(=O)n1-c1ccccc1)N1CCc2ccccc21 | inactive: 13.3% |
| O=C(CSc1nccn1-c1ccc(Cl)cc1)Nc1ccc(Cl)c(Cl)c1 | inactive: -8.92% |
| COc1cc(NC(=O)N2c3ccccc3Sc3ccccc32)cc(OC)c1 | inactive: -16.7% |
| CCOC(=O)N1CCc2c(sc3c2c(=O)n(CCc2ccccc2)c(=O)n3CC(=O)Nc2ccc(C)cc2)C1 | inactive: 3.53% |
| O=C(NCc1cccc(Br)c1)c1cnn(-c2ccc(F)cc2)c1-n1cccc1 | inactive: 11.5% |
| CC(=O)c1ccc(NC(=O)c2cc(-c3ccc(C)s3)nc3ccccc23)cc1 | inactive: 23.5% |
| CCCOC(=O)c1c(NC(=O)C(C)Sc2nc(-c3ccccc3)cc(C(F)(F)F)n2)sc(C(=O)N(C)C)c1C (configuration not stated) | inactive: -21.4% |
| CN1CCc2c(sc(NC(=O)CSc3ccccc3)c2-c2nc3ccccc3s2)C1 | inactive: 1.85% |
| Cc1cccc(N2CCN(C(=O)CN3C(=O)CSc4c3c(C)nn4-c3ccccc3)CC2)c1C | inactive: 24.9% |
| CCOC(=O)c1ccc(NC(=O)CSc2ccc3ccccc3n2)cc1 | inactive: -0.683% |
| COc1ccccc1C(=O)NCC(c1cccnc1)N1CCc2ccccc2C1 (configuration not stated) | inactive: -14.7% |
| COC(=O)c1ccc(NC(=O)CCn2cnnn2)cc1 | inactive: -0.819% |
| CCN(CCCNC(=O)c1nn(-c2ccc(OC)cc2)c(=O)c2c1c1ccccc1n2C)c1ccccc1 | inactive: 8.09% |
| CCCCNC(=O)c1ccc2c(c1)ncn2-c1cc(OC)ccc1OC | inactive: -8.34% |
| Cc1c(Cl)cccc1-n1ncc(C(=O)Nc2ccc(Br)cc2F)c1C1CCNCC1 | inactive: -22% |
| O=C(Nc1ccccc1F)c1ccc2c(Cl)c3c(nc2c1)CCC3 | inactive: -0.217% |

| SMILES | activity change, negative = cytotoxicity |
| --- | --- |
| CCCNc1ccc(-c2nc(-c3ccccn3)no2)cc1[N+](=O)[O-] | inactive: 8.93% |
| CCc1cccc(NC(=O)CCNS(=O)(=O)c2cccc3nonc23)c1 | inactive: 5.94% |
| COc1ccccc1NC(=O)C1=C(C)Nc2nnnn2C1c1ccc(C(F)(F)F)cc1 (configuration not stated) | inactive: 0.628% |
| Cc1ccc(-n2nnnc2CNC(=O)c2cc(C(F)(F)F)cc(C(F)(F)F)c2)cc1C | inactive: -13.3% |
| COc1cccc(CNC(=O)COc2cc(=O)n(C)c3ccccc23)c1 | inactive: -2.51% |
| O=C(Nc1cccc(C(F)(F)F)c1)c1cc(CN2CCOCC2)on1 | inactive: -0.311% |
| COc1ccc(S(=O)(=O)Nc2ccc(-c3cn4c(C)csc4n3)cc2)cc1 | inactive: -20.9% |
| Cc1ccc(N2CCN(S(=O)(=O)c3cccc4ccccc34)CC2)cc1Cl | inactive: -17.1% |
| COc1ccccc1S(=O)(=O)Cc1ccc(C(=O)NCc2ccc(Cl)cc2)o1 | inactive: 2.75% |
| COc1ccccc1NC(=O)c1sc2nc(C)c(C(=O)Nc3ccc(C)cc3C)c(-c3ccco3)c2c1N | inactive: -1.14% |
| CC(C)c1ccc(NC(=O)c2ccc(F)c(S(=O)(=O)N3CCc4ccccc43)c2)cc1 | inactive: -5.43% |
| O=C(C1CCCN(S(=O)(=O)c2cccc3nsnc23)C1)N1CCN(c2ccccc2F)CC1 (configuration not stated) | inactive: -12.8% |
| CCC(C)NC(=O)CSc1nc2n[nH]c(C)c2c(=N)n1-c1cc(Cl)ccc1C (configuration not stated) | inactive: 0.266% |
| CCC1=Nc2cc(C(=O)NC3CCC(C)CC3)ccc2Sc2ccc(C)cc21 (configuration not stated) | inactive: -2.75% |
| CCC1CN(C(=O)N2CCC(C(=O)NCc3cccc(OC)c3OC)CC2)c2cc(C)ccc2O1 (configuration not stated) | inactive: -18.3% |
| CCc1ccc(NC(=O)CCn2c(=O)c3cccn3c3ccccc32)cc1 | inactive: -8.94% |
| Cc1ccccc1NC(=O)CSc1nc2ccc(NC(=O)c3cccs3)cc2s1 | inactive: -0.202% |
| CSc1cccc(NC(=O)c2cccc(N3CCCS3(=O)=O)c2)c1 | inactive: -21.2% |
| COc1cccc(-c2noc(C3CC(=O)N(c4ccc(F)cc4)C3)n2)c1OC (configuration not stated) | inactive: 7.87% |
| COc1ccccc1CNC(=O)c1cc2sccc2n1Cc1ccc(Cl)cc1 | inactive: 7.56% |
